Test results taken from publication PMC4550278.
No constants are given. Whether binding was seen depends on the method and setting. In cells and extracts the contact can be indirect. Some entries that bind do so weakly or less than the wild type. For some of these results: Tags and fused reporters may be left off the sequences shown. Values belong to the binder of their own block, whether it stands above or below them.

By UniProt entry, the sequences of proteins in these tests, tags left out.
UniProt Q9VU02: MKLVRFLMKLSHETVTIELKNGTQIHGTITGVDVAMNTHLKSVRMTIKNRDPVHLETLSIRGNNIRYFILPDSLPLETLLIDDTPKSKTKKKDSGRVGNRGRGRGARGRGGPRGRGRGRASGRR
UniProt Q9VI10: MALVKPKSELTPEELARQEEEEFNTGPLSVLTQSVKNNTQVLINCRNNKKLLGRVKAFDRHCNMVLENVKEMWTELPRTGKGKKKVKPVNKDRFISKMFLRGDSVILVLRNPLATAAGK

Tests used:
[1] = target: Flag-tagged Ran (control protein) (UniProt Q9VZ23); experiment: co-IP; lysates of S2 cells expressing a Flag-tagged protein, immunoprecipitated with anti-Flag antibody; endogenous partners detected by immunoblotting; immunoprecipitates treated with or without RNase A (Fig 3A, 4D); lysis buffer 20 mM Tris-HCl pH 7.6, 150 mM NaCl, 2 mM EDTA, 10% glycerol, 1% Triton X-100, 1 mM DTT
[2] = target: Flag-tagged SmD1 (Drosophila) (UniProt Q9VU02); experiment: as above
[3] = target: Flag-tagged SmD2 (Drosophila) (UniProt Q9VI10); experiment: co-IP; lysates of S2 cells co-expressing a Flag-tagged protein (SmD1, other Sm proteins or Ran) and T7-tagged Pasha (full length or truncated), immunoprecipitated with anti-Flag antibody; immunoblotting with anti-T7, anti-SmD1 and anti-Flag
[4] = target: Flag-tagged SmD1 (Drosophila) (UniProt Q9VU02); experiment: as above
[5] = target: Flag-tagged SmD1 (Drosophila) (UniProt Q9VU02); experiment: co-IP; lysates of S2 cells expressing Flag-tagged SmD1, immunoprecipitated with anti-SmD1 antibody or non-immune serum; immunoprecipitates treated with or without RNase A; immunoblotting with anti-GW182 and anti-Flag
[6] = target: T1, T7-tagged C-terminal fragment of Pasha (334–642) (Drosophila) (UniProt Q9V9V7); experiment: co-IP; lysates of S2 cells expressing T7-tagged full length or truncated Pasha, immunoprecipitated with anti-T7 antibody; endogenous Drosha detected by immunoblotting with anti-Drosha
T1 sequence: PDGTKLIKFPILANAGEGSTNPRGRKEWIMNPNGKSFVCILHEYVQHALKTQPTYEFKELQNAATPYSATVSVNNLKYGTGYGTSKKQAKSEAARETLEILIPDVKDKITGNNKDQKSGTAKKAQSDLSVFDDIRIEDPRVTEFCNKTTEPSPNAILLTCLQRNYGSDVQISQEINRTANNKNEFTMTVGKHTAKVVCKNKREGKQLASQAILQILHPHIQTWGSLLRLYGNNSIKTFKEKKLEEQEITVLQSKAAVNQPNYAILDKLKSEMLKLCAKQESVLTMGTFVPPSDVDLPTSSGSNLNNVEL

[7] = target: T2, T7-tagged full length Pasha (Drosophila) (UniProt Q9V9V7); experiment: as above
T2 sequence: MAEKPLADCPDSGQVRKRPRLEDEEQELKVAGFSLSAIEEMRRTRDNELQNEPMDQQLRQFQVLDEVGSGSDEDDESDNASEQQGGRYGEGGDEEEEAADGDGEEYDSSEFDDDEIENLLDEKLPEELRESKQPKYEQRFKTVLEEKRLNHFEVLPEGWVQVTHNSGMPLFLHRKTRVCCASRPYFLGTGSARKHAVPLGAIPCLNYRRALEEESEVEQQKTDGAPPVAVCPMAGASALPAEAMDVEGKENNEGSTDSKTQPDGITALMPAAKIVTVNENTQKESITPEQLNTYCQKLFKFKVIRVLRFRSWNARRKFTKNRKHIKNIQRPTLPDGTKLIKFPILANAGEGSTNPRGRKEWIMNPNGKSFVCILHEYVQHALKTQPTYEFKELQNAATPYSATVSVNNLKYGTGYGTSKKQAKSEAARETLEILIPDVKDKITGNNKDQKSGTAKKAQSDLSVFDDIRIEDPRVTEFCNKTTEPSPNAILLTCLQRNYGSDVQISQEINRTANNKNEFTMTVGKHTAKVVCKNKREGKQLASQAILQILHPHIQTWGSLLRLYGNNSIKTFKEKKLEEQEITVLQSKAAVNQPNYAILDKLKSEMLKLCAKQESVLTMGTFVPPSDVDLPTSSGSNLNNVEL

binding [1]: no binding
binding [2]: binds
B1: endogenous Pasha (protein, UniProt Q9V9V7 1-642)
chain: T2 sequence

binding [6]: binds
binding [7]: binds
B4: endogenous Drosha (enzyme, UniProt Q7KNF1 1-1327)
chain: MYQPPLPPPPVQPAPPPPPPPPEEDLSPPGVGVPSHNYSSNESHSQSSKSLDYVYPETPAPYASSVPSYDPYQQPPAYGYEGYAYNEQAQKYGGQESHYQYQYPASGSSFLYESYKYPDRYPAYSSNYRPPSERQRYTSNSSSQGYHHYPGYSSGRRYEQRHDQEHRQIQDSRYAHEPRHGHYAHRQAKGSQHGYYGSAARNQVSDDYSPRGHHERERNETLEKTRAKPKVETERDRLLRQWCSNFCEKPEDYVKKMNALSEADAPVESWVRSSPAELYYERTKSENEVRGRARLQKLCTLFDEELLQRAKRVREKLPVYVPPPRKARRRVCKHKHKSEACSSSSSSDDDSDEDAFKIEQDCCMEELSRKVQHPQRVHADLWHNDAGEMNDGPLCRCSAKSRRIGIRHGIYPGETGYKLCDPNSNNAGKLFHYRISISPPTNFLTKTPTIIKHDEHEFLFEGFSLLSHVRLSDLPVCKVIRFNIEYTIEYEEEKMPENFTIHELDIFFKYLFHELLELVDFNLMPNLPSGNVEESCPAFHFFPRFVRDLPDNGKEVLAMVEVLRYLLDNSAQLVERQQLLHLNQISQSEWQNYVDFIKGMLVTKPGYKPCSLRVDQLDRNNSDLPECVDRETGISHPAIVHFGICHPQLSYAGNPEYQKAWREYVKYRHLMANMSKPSFKDKRKLEEKEQRLQEMRTQGRMKRNITVAISSEGFYRTGIMCDVVQHAMLIPVLTGHLRFHKSLDLLEESIGYRFKNRYLLQLALTHPSYKENYGTNPDHARNSLTNCGIRQPEYGDRKIHYMNTRKRGINTLVSIMSRFGKEHETVSNITHNERLEFLGDAVVEFLSSIHLFFMFPELEEGGLATYRAAIVQNQHLALLAKKLQLEEFMLYAHGSDLCHELELRHAMANCFEALMGALLLDGGIKVADEVFTDALFRQDEKLLSIWKNLPEHPLQEQEPLGDRSCIDSYRVLKELTKFEDSIGIKFKHIRLLARAFTDRSIGFTHLTLGSNQRLEFLGDTVLQLICSEYLYRHFPEHHEGHLSLLRSSLVNNRTQAVVCDDLGMPKYAVYANPKADLKTKDRADLLEAFLGALYVDKGLLYCEQFCHVCLFPRLQLFIMNQDWNDPKSKLQQCCLTLRTMDGGEPDIPYYKVVEASGPTNTRVYKVAVYFRSKRLATSSGSSIQQAEMNAAKQALENSRDLFPQLDHQKRVIAKSIKKQTGNELDNDSDRQHQEEKIKRPKYATPLQDESHLPKQYRMHENISSDELPEDEDFESTAPKSPTMPLRSNRSGSSSSSSSSDSDGSTSSPKCKRRLKKCSSVSSKSSLG

The next lines start with the binder.

B2: T7-tagged full length Pasha (protein, UniProt Q9V9V7 1-642)
chain: T2 sequence
binding [3]: binds
binding [4]: binds

B3: endogenous GW182 (protein, UniProt Q8SY33 1-1384)
chain: MREALFSQDGWGCQHVNQDTNWEVPSSPEPANKDAPGPPMWKPSINNGTDLWESNLRNGGQPAAQQVPKPSWGHTPSSNLGGTWGEDDDGADSSSVWTGGAVSNAGSGAAVGVNQAGVNVGPGGVVSSGGPQWGQGVVGVGLGSTGGNGSSNITGSSGVATGSSGNSSNAGNGWGDPREIRPLGVGGSMDIRNVEHRGGNGSGATSSDPRDIRMIDPRDPIRGDPRGISGRLNGTSEMWGHHPQMSHNQLQGINKMVGQSVATASTSVGTSGSGIGPGGPGPSTVSGNIPTQWGPAQPVSVGVSGPKDMSKQISGWEEPSPPPQRRSIPNYDDGTSLWGQQTRVPAASGHWKDMTDSIGRSSHLMRGQSQTGGIGIAGVGNSNVPVGANPSNPISSVVGPQARIPSVGGVQHKPDGGAMWVHSGNVGGRNNVAAVTTWGDDTHSVNVGAPSSGSVSSNNWVDDKSNSTLAQNSWSDPAPVGVSWGNKQSKPPSNSASSGWSTAAGVVDGVDLGSEWNTHGGIIGKSQQQQKLAGLNVGMVNVINAEIIKQSKQYRILVENGFKKEDVERALVIANMNIEEAADMLRANSSLSMDGWRRHDESLGSYADHNSSTSSGGFAGRYPVNSGQPSMSFPHNNLMNNMGGTAVTGGNNNTNMTALQVQKYLNQGQHGVAVGPQAVGNSSAVSVGFGQNTSNAAVAGAASVNIAANTNNQPSGQQIRMLGQQIQLAIHSGFISSQILTQPLTQTTLNLLNQLLSNIKHLQAAQQSLTRGGNVNPMAVNVAISKYKQQIQNLQNQINAQQAVYVKQQNMQPTSQQQQPQQQQLPSVHLSNSGNDYLRGHDAINNLQSNFSELNINKPSGYQGASNQQSRLNQWKLPVLDKEINSDSTEFSRAPGATKQNLTANTSNINSLGLQNDSTWSTGRSIGDGWPDPSSDNENKDWSVAQPTSAATAYTDLVQEFEPGKPWKGSQIKSIEDDPSITPGSVARSPLSINSTPKDADIFANTGKNSPTDLPPLSLSSSTWSFNPNQNYPSHSWSDNSQQCTATSELWTSPLNKSSSRGPPPGLTANSNKSANSNASTPTTITGGANGWLQPRSGGVQTTNTNWTGGNTTWGSSWLLLKNLTAQIDGPTLRTLCMQHGPLVSFHPYLNQGIALCKYTTREEANKAQMALNNCVLANTTIFAESPSENEVQSIMQHLPQTPSSTSSSGTSGGNVGGVGTSANNANSGSAACLSGNNSGNGNGSASGAGSGNNGNSSCNNSAAGGGSSSNNTITTVANSNLVGSSGSVSNSSGVTANSSTVSVVSCTASGNSINGAGTANSSGSKSSANNLASGQSSASNLTNSTNSTWRQTSQNQALQSQSRPSGREADFDYISLVYSIVDD
binding [5]: binds
